Laboratory results from PubChem BioAssay AID651567 (National Center for Advancing Translational Sciences (NCATS), 2012).
About 10 (0.8%) of roughly 1,200 compounds were called active. Roughly 4% stayed inconclusive and do not appear here. The call rests on the fitted dose curve; in most records, active means well fitted inhibition curve with a large enough effect; inconclusive means small, poorly fitted or top-dose-only effect; inactive means no such curve, though single readings can be large or run the other way. This is one part of the list.

experiment: qHTS Assay to Find Inhibitors of Chronic Active B-Cell Receptor Signaling: Hit Validation in OCI-Ly3 Assay; conditions: OCI-Ly3 IkB-luciferase reporter, Chroma-Glo luminescence, 4 h; series mostly up to 46.1 µM; activity change, negative = inhibition: at the top concentration
Procedure, shortened: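 Readout is dual-colour luminescence: IkB-alpha-luciferase fusion (green) against unfused luciferase (red), plus their ratio, scaled between basal cells and 10 uM MG-132. OCI-Ly3 cells, 0.5% FBS IMDM, compound with doxycycline (80ng/ml solution), 4 hrs at 37C; curves fitted and classed.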
On the % scale 0 is the no-effect control and ±100 the full control effect.

Activity change, negative = inhibition, inactive:
COc1cc(C)nc(NCc2ccccc2)n1 0.488%
COc1cc(OC)c2c(-c3cccc(-c4ccc(OC)c(F)c4)c3)cc(=O)oc2c1 -1.85%
N#C/C(=C\c1ccc(Cl)cc1)c1nc2ccccc2o1 -0.402%
COc1ccccc1NS(=O)(=O)c1ccc(-c2cnc(C3CC3)o2)cc1 -6.85%
CCc1ccc(/C=N/NC(=O)c2cc(C3CC3)nc3ccccc23)s1 -6.48%
CCOC(=O)c1c(C)c(C(=O)OCC)n(C)c1C -0.824%
N#CCN1C(=S)N=C(Nc2cccc(Cl)c2)C12CCCCC2 -1.04%
COc1ccc(-c2cc(C(=O)NN)[nH]n2)cc1OC -0.116%
COc1cc2c(cc1O)CC[C@@H]1[C@@H]2CC[C@]2(C)[C@@H](O)CC[C@@H]12 -2.78%
COc1ccc(C(=O)N/N=C/c2ccccc2OC(=O)c2ccccc2)cc1 -18.9%
COc1ccc(/C=N/NC(=O)COc2ccccc2-c2ccccc2)cc1 -4.37%
CCCCN1C(=O)N(C)C2C1N(C)C(=O)N2CCCC (stereo not drawn) -0.446%
COc1ccc(-c2nn(C)c(=O)c3ccccc23)cc1CNS(C)(=O)=O -0.456%
CCCCC[C@H](O)/C=C/[C@@H]1[C@@H](C/C=C\CCCC(=O)O)[C@H]2CO[C@@H]1C2 -0.516%
COc1cc(C2C(C#N)=C(N)Oc3cc(N(C)C)ccc32)cc2c1OCO2 (stereo not drawn) -6.66%
CC(C)(C)C(=O)NC(=S)NNC(=O)c1ccc(-c2ccccc2)cc1 -6.88%
CN(C)c1ccc2c(c1)OC(N)=C(C#N)C2c1cccc(F)c1 (stereo not drawn) -12.2%
NNC(=O)c1[nH]c2ccc(Br)cc2c1-c1ccccc1 -2.41%
O=c1cc(-c2ccccc2)[nH]c2ccccc12 -4.49%
CCOC(=S)SCC(=O)Nc1nc(-c2ccc(Br)cc2)cs1 -1.99%
CCCOc1ccccc1C1CC(=O)Nc2cc3c(cc21)OCO3 (stereo not drawn) -22.2%
Cc1cc2nc(/C=C/c3cccnc3)[nH]c2cc1C -2.38%
N#CC(C#N)=C(N)CSc1cccc[n+]1[O-] -0.419%
NNC(=O)c1[nH]c2ccc([N+](=O)[O-])cc2c1-c1ccccc1 -0.543%
COc1cc(C2Nc3ccccc3C(=O)N2c2ccc(Cl)cc2)c(Cl)cc1OCC(=O)O (stereo not drawn) 0.262%
Cc1ccc(C)c(NS(=O)(=O)c2ccc(-c3cnc(C4CC4)o3)cc2)c1 -9.18%
Oc1ccc(-c2nc3cnccn3c2Nc2ccc3c(c2)OCCO3)cc1 -3.97%
CCOc1ccc(N(CC(=O)Nc2ccccc2OCC)S(=O)(=O)c2c(C)noc2C)cc1 -7.77%
Cc1cc(=O)c(C(=O)Nc2cccc(N3CCCC3=O)c2)nn1-c1ccccc1Cl -0.879%
COc1cc([C@@H]2c3cc4c(cc3[C@H](O)[C@H]3COC(=O)[C@H]23)OCO4)cc(OC)c1OC -3.51%
CCOC(=O)C(C)N1C(=O)S/C(=C/c2ccc3c(c2)n(C)c(=O)n3C)C1=O (stereo not drawn) -1.78%
COc1ccc2nc(NC(=S)NC(=O)c3ccco3)sc2c1 0.35%
Oc1ccc(NCc2cccc(OCc3ccccc3)c2)cc1 -2.83%
S=c1c2c(nc3nc[nH]n13)CCC2 -0.796%
COc1cc(OC)cc(C(=O)N2CC(=O)Nc3ccccc32)c1 -0.837%
NC(=S)n1[nH]c(-c2ccc([N+](=O)[O-])cc2)c(N=Nc2cccc(Cl)c2)c1=O -0.38%
CCCc1nnc(NC(=O)CCC(=O)NCCc2ccc(OC)c(OC)c2)s1 -0.454%
Cc1ccc(NC(=S)NC(=O)C2CC2)cc1Cl -5.51%
Cc1ccc(N=Nc2c(C)[nH]n(C(N)=S)c2=O)cc1 0.657%
COCCNC(=S)N/N=C(\C)c1ccc(Cl)c(Cl)c1Cl -2.44%
COc1cc(OC)cc(C(=O)NCC(=O)Nc2ccc(-c3ccccc3)cc2)c1 -4.77%
Cc1ccc(Sc2c(CO)c(-c3ccccc3)nn2C)cc1 -4.65%
CCCCC[C@H](O)/C=C/[C@H]1CCC(=O)[C@@H]1CCCCCCC(=O)N1CCCCC1CO (stereo partly drawn) -4.81%
Nc1ncnc2c1ncn2C1OC(C(=O)NC2CC2)C(O)C1O (stereo not drawn) -1.22%
O=C(NC(=S)NC1CCSC1=O)c1ccccc1 (stereo not drawn) -1.04%
Cc1ccc(C(=O)Oc2ccc(Cl)c3cccnc23)cc1[N+](=O)[O-] -14.9%
COc1cc(OC)c2c(-c3cccc(-c4sccc4C(C)=O)c3)cc(=O)oc2c1 -5.56%
COc1cc2c(c(OC)c1OC)-c1ccc(N(C)CC(OC)OC)c(=O)cc1[C@@H](NC(C)=O)CC2 -2.06%
NS(=O)(=O)c1cc(C(=O)OCC(=O)N2CCc3ccccc3C2)ccc1Cl -0.117%
COc1cc2c(cc1OC)-c1cc(Nc3ccc(C)cc3)nc(=O)n1CC2 -0.409%
COc1ccc2[nH]c3c(c2c1)CCN1C(=O)C(CC(=O)NCC24CC5CC(CC(C5)C2)C4)C[C@H](C(=O)N2CCCCC2)[C@@]31C (stereo partly drawn) -2.31%
CCSc1nc(-c2ccccc2)nc(C(Cl)Cl)n1 0.632%
CCCn1nnc(NC(=S)NC(=O)Cc2ccccc2)n1 -0.762%
COc1cc(C2=NOC(C(=O)NCc3ccco3)C2)cc(OC)c1OC (stereo not drawn) -0.186%
COc1cc(-c2noc(C)c2/C=C/c2ccc(OC(C)=O)cc2)cc(OC)c1OC -5.99%
C/C(=N\NC(=O)COc1ccc(C(C)(C)C)cc1)c1ccc(N2CCOCC2)cc1 -1.5%
COc1cc(OC)c(OC)cc1/C=C1\CCC/C(=C\c2cc(OC)c(OC)cc2OC)C1=O -10.7%
COC(=O)c1ccccc1NC(=O)Cn1c(-c2nonc2N)nc2ccccc21 -0.301%
COc1cc2c(cc1C1NC(=S)NC(C)=C1C(N)=O)CCCC2 (stereo not drawn) -3.96%
NC(=S)NN=C1c2ccccc2-c2ccccc21 -0.434%
COc1cccc(N2CCN(C(=O)c3ccc(CS(=O)c4ccc(C)cc4)o3)CC2)c1 (stereo not drawn) -1.52%
Cc1ccc(-c2cc(C(=O)N/N=C/c3c(C)nn(-c4ccccc4)c3C)[nH]n2)cc1 -14.7%
OC[C@H]1O[C@@H](n2cnc3c(NC4CCCC4)nc(Cl)nc32)[C@H](O)[C@@H]1O -0.38%
Cc1ccc(/C=N/NC(=O)c2cc(-c3cccnc3)nc3ccccc23)cc1 -5.97%
Cc1c(/C=N\NC(=O)C2COc3ccccc3O2)c2ccccc2n1C (stereo not drawn) -2.63%
CCC(=O)Nc1ccc(SC#N)cc1C -0.423%
CC1C(=O)N2CCCc3cc(NC(=O)c4ccccc4Br)cc1c32 (stereo not drawn) -10.2%
Oc1ccc(CNc2ccccc2F)c2cccnc12 -0.396%
COc1ccc(OC)c(C2CC(=O)c3c([nH]c(C(=O)OC(C)C)c3C)C2)c1 (stereo not drawn) -5.41%
Cc1[nH][nH]c(=O)c1C(c1c(C)[nH][nH]c1=O)c1cn(Cc2ccc(F)cc2)c2ccccc12 -14.1%
CCC1=Nc2cc(C(=O)NCc3ccccc3Cl)ccc2Sc2ccc(C)cc21 -3.05%
COc1cc(SSc2cc(OC)cc([N+](=O)[O-])c2N)c(N)c([N+](=O)[O-])c1 -0.114%
CCNC(=S)NNc1ccccc1 0.566%
COc1ccc(C=C2c3ccccc3C(=O)c3ccccc32)c(OC)c1 -2.64%
CCOc1ccccc1CNS(=O)(=O)c1ccc(-c2cnc(C3CC3)o2)cc1 -5.8%
CC1=NN(C(N)=S)C(=O)C1N=Nc1ccc(F)cc1 (stereo not drawn) -3.94%
COc1ccc(C2=NN(C(C)=O)C(c3cccs3)C2)cc1OC (stereo not drawn) -0.471%
Cc1cc(C)c2cc(C=O)c(Cl)nc2c1 -2.95%
CCn1c2ccccc2c2cc(NC(=O)c3cc(OC)cc(OC)c3)ccc21 -7.74%
c1ccc(C2=Nn3c(nnc3-c3n[nH]c4c3CCC4)SC2)cc1 -7.69%
Cc1nc2ncccn2c1-c1csc(Nc2ccc(N(C)C)cc2)n1 -3.43%
COc1cc2c(cc1OC)-c1cc(Nc3ccccc3C)nc(=O)n1CC2 -0.0229%
COc1ccc(C(=O)c2ccc(OC)c(N)c2)cc1N -1.03%
CCOC(=O)C(C)N1C(=O)S/C(=C/c2cc(C)n(-c3ccccn3)c2C)C1=O (stereo not drawn) -0.476%
Cc1ccccc1Nc1c(N)c(=O)oc2ccccc12 -0.754%
Cc1ccc(/C=[N+](\[O-])c2ccc(N(C)C)cc2)c2nsnc12 -0.758%
S=C(NCCN1CCOCC1)N/N=C/c1cccs1 -0.495%
Cc1cc(C)cc(NS(=O)(=O)c2ccc(-c3cnc(C4CC4)o3)cc2)c1 -13.9%
COC(=O)Nc1nc(-c2ccccc2)c(C(=O)c2ccc(Cl)cc2)s1 -1.03%
c1ccc2c(-c3csc(-c4ccncc4)n3)c[nH]c2c1 -2.65%
O=C(N/N=C/C(Br)=C\c1ccccc1)c1n[nH]c2c1CCC2 -10.5%
COC(=O)c1ccc(CNC(=O)Cn2cnc3c(NCc4ccccc4)ncnc32)cc1 -0.322%
CCOc1ccc(S(=O)(=O)NCc2ccccn2)cc1NC(=O)c1ccccc1F -1.14%
COc1ccc(-c2c3c(=O)n(C)c(=O)n(C)c3cn2N2CCOCC2)cc1 0.543%
Cc1noc(C)c1COc1cccc(C(=O)OCC(=O)N2CC(=O)Nc3ccccc32)c1 -1.2%
Nc1nc(SCc2nc(-c3ccccc3)no2)[nH]c(=O)c1-c1ccccc1 -0.0938%
CCOC(=O)CSC1=C(C#N)C(c2ccc(C)s2)CC(=O)N1 (stereo not drawn) -6.8%
N#Cc1ccc(-c2cccs2)nc1SCc1cccnc1 0.156%
OC[C@H]1O[C@@H](n2cnc3c(Nc4ccccc4)ncnc32)[C@H](O)[C@@H]1O -7.37%
CC1CCC(n2c(=S)[nH]c3ccccc3c2=O)CC1 (stereo not drawn) 0.0597%
COCc1ccc(O)c2ncccc12 -0.501%
COc1ccc2c(c1)sc1nc(-c3ccccc3)cn12 16.8%
COc1cccc(CN2c3ccc(Br)cc3C(=O)CS2(=O)=O)c1 -1.51%
O=C(Nc1cccc2ccccc12)c1cc2c(cc1Br)OCO2 -1.38%
COc1ccc(/C=N/NC(=O)c2[nH]c3ccc(Cl)cc3c2-c2ccccc2)c(C(=O)O)c1OC -0.725%
COc1ccc(NC(=S)NC(=O)/C=C/c2ccco2)cc1 -0.564%
CCN(CC)c1ccc(/C=N/NC(=S)NC)c(O)c1 -0.53%

Potency, inactive:
Cc1ccc(S(=O)(=O)Cc2ccc(C(=O)N3CCN(c4cccc(C)c4C)CC3)o2)cc1
